This note sets out measurements from the antibiotic and cytotoxicity screens of Wong et al. (2023).

Molecules are shown by their SMILES. The list shows a part of the results.

The test deals with S. aureus RN4220. Description: growth inhibition call (relative growth <= 0.2). To be noted: 50 µM.
For the molecule `C[C@@H]1CN([C@@H](C)CO)C(=O)Cc2cc(NC(=O)Nc3ccc(C(F)(F)F)cc3)ccc2O[C@@H]1CN(C)CC1CCCCC1`, the growth inhibition call was “inactive”.
The entry for `C[C@@H]1CN([C@H](C)CO)C(=O)c2cc(NC(=O)Nc3cccc4ccccc34)ccc2O[C@H]1CN(C)S(=O)(=O)c1ccccc1` is “inactive”.
On to `O=C(NCc1ccncc1)C(=O)NC[C@H]1OCCN1S(=O)(=O)c1ccc(F)cc1`, for which the growth inhibition call was “inactive”.
As for `CCOC(=O)N(C)C[C@@H]1OCc2cnnn2CCCC(=O)N([C@H](C)CO)C[C@H]1C`, the growth inhibition call is “inactive”.
As for `C[C@H]1CN([C@@H](C)CO)C(=O)CCCn2cc(nn2)CO[C@@H]1CN(C)C(=O)Nc1ccccc1C(F)(F)F`, the growth inhibition call is “inactive”.
`CC1CCC2(OC1)OC1CC3C4CCC5CC(O)CCC5(C)C4CCC3(C)C1C2C` (stereo not drawn): the growth inhibition call was “inactive”.
For the molecule `COc1ccc(CCN(C)CCCOc2ccc(S(=O)(=O)c3c(C(C)C)cn4ccccc34)cc2)cc1OC`, the growth inhibition call is “inactive”.
With `C[C@H](CO)N1C[C@H](C)[C@H](CN(C)Cc2ccccc2)Oc2ccc(NC(=O)CCCN(C)C)cc2C1=O`, the growth inhibition call is “inactive”.
In the case of `Cc1nc2sccn2c(=O)c1CCN1CCC(=C(c2ccc(F)cc2)c2ccc(F)cc2)CC1`, the growth inhibition call is “inactive”.
For the molecule `S=C(c1cccs1)N1CCCC1`, the growth inhibition call is “inactive”.
The entry for `C[C@H](CO)N1C[C@H](C)[C@H](CN(C)Cc2ccc(-c3ccccc3)cc2)Oc2c(NC(=O)Nc3ccc(F)cc3)cccc2C1=O` is “inactive”; for `NC(=S)N[C@H]1CCS(=O)(=O)C1` it is “inactive”.
With `C=CCC[C@@H](Cc1ccc(F)cc1)C(=O)OC[C@@H](Cc1c[nH]c2ccccc12)NC(=O)[C@@H](CC=C)CC(=O)N(CCO)Cc1ccccc1`, the growth inhibition call was “inactive”.
